Assay results taken from the supplement of paper PMC12217912.
The list shows a part of the results. Sequences were assembled here from the parent chain. Values near 0.05 are background.

B1: TEV protease; numbered along this chain (parent)
chain: MGESLFKGPRDYNPISSSICHLTNESDGHTTSLYGIGFGPFIITNKHLFRRNNGTLVVQSLHGVFKVKDTTTLQQHLVDGRDMIIIRMPKDFPPFPQKLKFREPQREERICLVTTNFQTKSMSSMVSDTSCTFPSGDGIFWKHWIQTKDGQCGSPLVSTRDGFIVGIHSASNFTNTNNYFTSVPKNFMELLTNQEAQQWVSGWRLNADSVLWGGHKVFMVKPEEPFQPVKEATQL

Variants of: B1
Assay: raw area under fraction-flipped curve 0-4 h after induction (AUC4h, not background-subtracted), DNA-recorder readout of cleavage of the substrate (dimensionless); higher = more cleavage of the substrate by the protease variant
Conditions: temperature: 34 °C; time window: 0-4 h after rhamnose induction
Experimental: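 In vivo DNA recorder in E. coli TOP10(DE3) ΔrhaA at 34 °C. Each TEVp single-site mutant (parent TEVp 0) is paired with a single-site variant of the 7-mer TEVs (canonical ENLYFQ|S). The substrate sits between flexible linkers in a Bxb1-sfGFP-TEVs-SsrA fusion, so cleavage stabilises Bxb1 and speeds flipping of a recombination array, read by NGS. The value is the raw area under the fraction-flipped curve over 0-4 h after rhamnose induction (AUC4h), with ≥20 reads per time point. It is not background-subtracted; inactive controls average about 0.047.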
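Also: Bxb1 expression induced with 0.2% (w/v) L-rhamnose at OD600 near 0.5, cultures sampled hourly, flipped fraction per protease–substrate barcode pair counted by paired-end Illumina sequencing.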

Variant: MGESLFKGPRDYNPISSSICHLTNESDGHTTSLYGIGFGPFIITNKHLFRRNNGTLVVQSLHGVFKVKDTTTLQQHLVDGRDMIIIRMPKDFPPFPQKLKFREPQREERICLVTTNFVTKSMSSMVSDTSCTFPSGDGIFWKHWIQTKDGQCGSPLVSTRDGFIVGIHSASNFTNTNNYFTSVPKNFMELLTNQEAQQWVSGWRLNADSVLWGGHKVFMVKPEEPFQPVKEATQL [Q118V]
- area with substrate ECLYFQS: 0.0574
- area with substrate EGLYFQS: 0.101
- area with substrate EILYFQS: 0.119
- area with substrate EKLYFQS: 0.126
- area with substrate ELLYFQS: 0.0905
- area with substrate EMLYFQS: 0.104
- area with substrate EPLYFQS: 0.157
- area with substrate ETLYFQS: 0.136
- area with substrate EVLYFQS: 0.0882
- area with substrate EYLYFQS: 0.123

Variant: MGESLFKGPRDYNPISSSICHLTNESDGHTTSLYGIGFGPFIITNKHLFRRNNGTLVVQSLHGVFKVKDTTTLQQHLVDGRDMIIIRMPKDFPPFPQKLKFREPQREERICLVTTNFQTKGMSSMVSDTSCTFPSGDGIFWKHWIQTKDGQCGSPLVSTRDGFIVGIHSASNFTNTNNYFTSVPKNFMELLTNQEAQQWVSGWRLNADSVLWGGHKVFMVKPEEPFQPVKEATQL [S121G]
- area with substrate ECLYFQS: 0.127
- area with substrate EELYFQS: 0.149
- area with substrate EGLYFQS: 0.0888
- area with substrate EHLYFQS: 0.124
- area with substrate EILYFQS: 0.105
- area with substrate EKLYFQS: 0.0962
- area with substrate EMLYFQS: 0.0982
- area with substrate EPLYFQS: 0.0102
- area with substrate EQLYFQS: 0.115
- area with substrate ERLYFQS: 0.105
- area with substrate ESLYFQS: 0.134
- area with substrate ETLYFQS: 0.105
- area with substrate EVLYFQS: 0.159

Variant: MGESLFKGPRDYNPISSSICHLTNESDGHTTSLYGIGFGPFIITNKHLFRRNNGTLVVQSLHGVFKVKDTTTLQQHLVDGRDMIIIRMPKDFPPFPQKLKFREPQREERICLVTTNFQTKSASSMVSDTSCTFPSGDGIFWKHWIQTKDGQCGSPLVSTRDGFIVGIHSASNFTNTNNYFTSVPKNFMELLTNQEAQQWVSGWRLNADSVLWGGHKVFMVKPEEPFQPVKEATQL [M122A]
- area with substrate ECLYFQS: 0.127
- area with substrate EELYFQS: 0.076
- area with substrate EGLYFQS: 0.135
- area with substrate EHLYFQS: 0.113
- area with substrate EILYFQS: 0.0851
- area with substrate EKLYFQS: 0.12
- area with substrate ESLYFQS: 0.0927
- area with substrate EVLYFQS: 0.106
- area with substrate EWLYFQS: 0.124

Variant: MGESLFKGPRDYNPISSSICHLTNESDGHTTSLYGIGFGPFIITNKHLFRRNNGTLVVQSLHGVFKVKDTTTLQQHLVDGRDMIIIRMPKDFPPFPQKLKFREPQREERICLVTTNFQTKSNSSMVSDTSCTFPSGDGIFWKHWIQTKDGQCGSPLVSTRDGFIVGIHSASNFTNTNNYFTSVPKNFMELLTNQEAQQWVSGWRLNADSVLWGGHKVFMVKPEEPFQPVKEATQL [M122N]
- area with substrate ECLYFQS: 0.177
- area with substrate EFLYFQS: 0.0807
- area with substrate EKLYFQS: 0.119
- area with substrate ELLYFQS: 0.0707
- area with substrate ERLYFQS: 0.117

Variant: MGESLFKGPRDYNPISSSICHLTNESDGHTTSLYGIGFGPFIITNKHLFRRNNGTLVVQSLHGVFKVKDTTTLQQHLVDGRDMIIIRMPKDFPPFPQKLKFREPQREERICLVTTNFQTKSTSSMVSDTSCTFPSGDGIFWKHWIQTKDGQCGSPLVSTRDGFIVGIHSASNFTNTNNYFTSVPKNFMELLTNQEAQQWVSGWRLNADSVLWGGHKVFMVKPEEPFQPVKEATQL [M122T]
- area with substrate ECLYFQS: 0.0955
- area with substrate EDLYFQS: 0.13
- area with substrate EGLYFQS: 0.0924
- area with substrate EILYFQS: 0.0949
- area with substrate EKLYFQS: 0.108
- area with substrate ERLYFQS: 0.122
- area with substrate ESLYFQS: 0.159
- area with substrate EVLYFQS: 0.095

Variant: MGESLFKGPRDYNPISSSICHLTNESDGHTTSLYGIGFGPFIITNKHLFRRNNGTLVVQSLHGVFKVKDTTTLQQHLVDGRDMIIIRMPKDFPPFPQKLKFREPQREERICLVTTNFQTKSMESMVSDTSCTFPSGDGIFWKHWIQTKDGQCGSPLVSTRDGFIVGIHSASNFTNTNNYFTSVPKNFMELLTNQEAQQWVSGWRLNADSVLWGGHKVFMVKPEEPFQPVKEATQL [S123E]
- area with substrate ECLYFQS: 0.103
- area with substrate EDLYFQS: 0.112
- area with substrate EELYFQS: 0.111
- area with substrate EFLYFQS: 0.104
- area with substrate EGLYFQS: 0.0937
- area with substrate EHLYFQS: 0.115
- area with substrate EILYFQS: 0.095
- area with substrate EKLYFQS: 0.0731
- area with substrate ELLYFQS: 0.0899
- area with substrate EMLYFQS: 0.105
- area with substrate EPLYFQS: 0.096
- area with substrate EQLYFQS: 0.0956
- area with substrate ERLYFQS: 0.094
- area with substrate ESLYFQS: 0.0889
- area with substrate ETLYFQS: 0.105
- area with substrate EVLYFQS: 0.104
- area with substrate EWLYFQS: 0.113

Variant: MGESLFKGPRDYNPISSSICHLTNESDGHTTSLYGIGFGPFIITNKHLFRRNNGTLVVQSLHGVFKVKDTTTLQQHLVDGRDMIIIRMPKDFPPFPQKLKFREPQREERICLVTTNFQTKSMGSMVSDTSCTFPSGDGIFWKHWIQTKDGQCGSPLVSTRDGFIVGIHSASNFTNTNNYFTSVPKNFMELLTNQEAQQWVSGWRLNADSVLWGGHKVFMVKPEEPFQPVKEATQL [S123G]
- area with substrate ECLYFQS: 0.0907
- area with substrate EDLYFQS: 0.141
- area with substrate EELYFQS: 0.121
- area with substrate EHLYFQS: 0.145
- area with substrate EILYFQS: 0.11
- area with substrate EKLYFQS: 0.154
- area with substrate EMLYFQS: 0.114
- area with substrate EPLYFQS: 0.11
- area with substrate EQLYFQS: 0.131
- area with substrate ERLYFQS: 0.115
- area with substrate ESLYFQS: 0.105
- area with substrate ETLYFQS: 0.0871
- area with substrate EVLYFQS: 0.105
- area with substrate EWLYFQS: 0.0775
- area with substrate EYLYFQS: 0.106

Variant: MGESLFKGPRDYNPISSSICHLTNESDGHTTSLYGIGFGPFIITNKHLFRRNNGTLVVQSLHGVFKVKDTTTLQQHLVDGRDMIIIRMPKDFPPFPQKLKFREPQREERICLVTTNFQTKSMSAMVSDTSCTFPSGDGIFWKHWIQTKDGQCGSPLVSTRDGFIVGIHSASNFTNTNNYFTSVPKNFMELLTNQEAQQWVSGWRLNADSVLWGGHKVFMVKPEEPFQPVKEATQL [S124A]
- area with substrate ECLYFQS: 0.11
- area with substrate EDLYFQS: 0.123
- area with substrate EELYFQS: 0.0966
- area with substrate EILYFQS: 0.0833
- area with substrate EKLYFQS: 0.117
- area with substrate ELLYFQS: 0.107
- area with substrate EMLYFQS: 0.122
- area with substrate EVLYFQS: 0.0973

Variant: MGESLFKGPRDYNPISSSICHLTNESDGHTTSLYGIGFGPFIITNKHLFRRNNGTLVVQSLHGVFKVKDTTTLQQHLVDGRDMIIIRMPKDFPPFPQKLKFREPQREERICLVTTNFQTKSMSSEVSDTSCTFPSGDGIFWKHWIQTKDGQCGSPLVSTRDGFIVGIHSASNFTNTNNYFTSVPKNFMELLTNQEAQQWVSGWRLNADSVLWGGHKVFMVKPEEPFQPVKEATQL [M125E]
- area with substrate ECLYFQS: 0.0256
- area with substrate EELYFQS: 0.127
- area with substrate EHLYFQS: 0.0948
- area with substrate EILYFQS: 0.114
- area with substrate ELLYFQS: 0.0989
- area with substrate EMLYFQS: 0.0926
- area with substrate EQLYFQS: 0.104
- area with substrate ERLYFQS: 0.0883
- area with substrate ESLYFQS: 0.0984
- area with substrate EWLYFQS: 0.0485

Variant: MGESLFKGPRDYNPISSSICHLTNESDGHTTSLYGIGFGPFIITNKHLFRRNNGTLVVQSLHGVFKVKDTTTLQQHLVDGRDMIIIRMPKDFPPFPQKLKFREPQREERICLVTTNFQTKSMSSRVSDTSCTFPSGDGIFWKHWIQTKDGQCGSPLVSTRDGFIVGIHSASNFTNTNNYFTSVPKNFMELLTNQEAQQWVSGWRLNADSVLWGGHKVFMVKPEEPFQPVKEATQL [M125R]
- area with substrate ECLYFQS: 0.135
- area with substrate EDLYFQS: 0.127
- area with substrate EELYFQS: 0.129
- area with substrate EFLYFQS: 0.14
- area with substrate EGLYFQS: 0.125
- area with substrate EHLYFQS: 0.109
- area with substrate EILYFQS: 0.0801
- area with substrate EPLYFQS: 0.13
- area with substrate EQLYFQS: 0.134
- area with substrate ERLYFQS: 0.141
- area with substrate ESLYFQS: 0.108
- area with substrate ETLYFQS: 0.118
- area with substrate EYLYFQS: 0.145
